According to the supplement of paper PMC8728848:
Some of the results follow.

How the values were obtained:
Experiment in all cases: glycan array binding signal (z-score within array); higher = stronger binding
Conditions in all cases: glycan notation: IUPAC condensed, linker removed
[1] = biological target: Neu5Ac(a2-3)Gal(b1-3)GlcNAc(b1-6)GalNAc
In short: (§1)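 Columns mapping to the same glycan were averaged after glycan names were converted to IUPAC-condensed notation. The data come from 3228 arrays in the Consortium for Functional Glycomics database, limited to those with an available protein sequence. Binding is reported as a within-array Z-score averaged across arrays of one protein sequence and across linkers.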

[2] = biological target: Neu5Ac(a2-3)Gal(b1-3)GlcNAc6S
In short: as §1

[3] = biological target: Neu5Ac(a2-3)Gal(b1-3)[Fuc(a1-4)]GlcNAc
In short: as §1

[4] = biological target: Neu5Ac(a2-3)Gal(b1-3)[Fuc(a1-4)]GlcNAc(b1-3)Gal(b1-3)[Fuc(a1-4)]GlcNAc
In short: as §1

[5] = biological target: Neu5Ac(a2-3)Gal(b1-3)[Fuc(a1-4)]GlcNAc(b1-3)Gal(b1-4)[Fuc(a1-3)]GlcNAc
In short: as §1

[6] = biological target: Neu5Ac(a2-3)Gal(b1-3)[GlcNAc(b1-6)]GalNAc
In short: as §1

[7] = biological target: Neu5Ac(a2-3)Gal(b1-3)[Neu5Ac(a2-6)]GalNAc
In short: as §1

[8] = biological target: Neu5Ac(a2-3)Gal(b1-3)[Neu5Ac(a2-6)]GlcNAc(b1-3)[Fuc(a1-3)[Gal(b1-4)]GlcNAc(b1-6)]Gal(b1-4)Glc
In short: as §1

[9] = biological target: Neu5Ac(a2-3)Gal(b1-3)]Neu5Ac(a2-3)Gal(b1-4)]GlcNAc
In short: as §1

[10] = biological target: Neu5Ac(a2-3)Gal(b1-4)Glc
In short: as §1

[11] = biological target: Neu5Ac(a2-3)Gal(b1-4)GlcNAc
In short: as §1

[12] = biological target: Neu5Ac(a2-3)Gal(b1-4)GlcNAc(b1-2)Man
In short: as §1

[13] = biological target: Neu5Ac(a2-3)Gal(b1-4)GlcNAc(b1-2)Man(a1-3)[GlcNAc(b1-4)][Neu5Ac(a2-3)Gal(b1-4)GlcNAc(b1-2)Man(a1-6)]Man(b1-4)GlcNAc(b1-4)GlcNAc
In short: as §1

[14] = biological target: Neu5Ac(a2-3)Gal(b1-4)GlcNAc(b1-2)Man(a1-3)[Neu5Ac(a2-3)Gal(b1-4)GlcNAc(b1-2)Man(a1-6)]Man(b1-4)GlcNAc(b1-4)GlcNAc
In short: as §1

[15] = biological target: Neu5Ac(a2-3)Gal(b1-4)GlcNAc(b1-2)Man(a1-3)[Neu5Ac(a2-3)Gal(b1-4)GlcNAc(b1-2)Man(a1-6)]Man(b1-4)GlcNAc(b1-4)[Fuc(a1-6)]GlcNAc
In short: as §1

[16] = biological target: Neu5Ac(a2-3)Gal(b1-4)GlcNAc(b1-2)Man(a1-3)[Neu5Ac(a2-6)Gal(b1-4)GlcNAc(b1-2)Man(a1-6)]Man(b1-4)GlcNAc(b1-4)GlcNAc
In short: as §1

[17] = biological target: Neu5Ac(a2-3)Gal(b1-4)GlcNAc(b1-2)[Neu5Ac(a2-3)Gal(b1-4)GlcNAc(b1-4)]Man(a1-3)[GlcNAc(b1-4)][Neu5Ac(a2-3)Gal(b1-4)GlcNAc(b1-2)[Neu5Ac(a2-3)Gal(b1-4)GlcNAc(b1-6)]Man(a1-6)]Man(b1-4)GlcNAc(b1-4)GlcNAc
In short: as §1

[18] = biological target: Neu5Ac(a2-3)Gal(b1-4)GlcNAc(b1-2)[Neu5Ac(a2-3)Gal(b1-4)GlcNAc(b1-4)]Man(a1-3)[GlcNAc(b1-4)][Neu5Ac(a2-3)Gal(b1-4)GlcNAc(b1-4)Man(a1-6)]Man(b1-4)GlcNAc(b1-4)GlcNAc
In short: as §1

[19] = biological target: Neu5Ac(a2-3)Gal(b1-4)GlcNAc(b1-2)[Neu5Ac(a2-3)Gal(b1-4)GlcNAc(b1-6)]Man(a1-6)[Neu5Ac(a2-3)Gal(b1-4)GlcNAc(b1-2)Man(a1-3)][GlcNAc(b1-4)]Man(b1-4)GlcNAc(b1-4)GlcNAc
In short: as §1

[20] = biological target: Neu5Ac(a2-3)Gal(b1-4)GlcNAc(b1-3)Gal
In short: as §1

[21] = biological target: Neu5Ac(a2-3)Gal(b1-4)GlcNAc(b1-3)Gal(b1-3)GlcNAc
In short: as §1

[22] = biological target: Neu5Ac(a2-3)Gal(b1-4)GlcNAc(b1-3)Gal(b1-4)GlcNAc
In short: as §1

[23] = biological target: Neu5Ac(a2-3)Gal(b1-4)GlcNAc(b1-3)Gal(b1-4)GlcNAc(b1-2)Man(a1-3)[Neu5Ac(a2-3)Gal(b1-4)GlcNAc(b1-3)Gal(b1-4)GlcNAc(b1-2)Man(a1-6)]Man(b1-4)GlcNAc(b1-4)GlcNAc
In short: as §1

[24] = biological target: Neu5Ac(a2-3)Gal(b1-4)GlcNAc(b1-3)Gal(b1-4)GlcNAc(b1-3)Gal(b1-4)GlcNAc
In short: as §1

[25] = biological target: Neu5Ac(a2-3)Gal(b1-4)GlcNAc(b1-3)Gal(b1-4)GlcNAc(b1-3)Gal(b1-4)GlcNAc(b1-2)Man(a1-3)[Neu5Ac(a2-3)Gal(b1-4)GlcNAc(b1-3)Gal(b1-4)GlcNAc(b1-3)Gal(b1-4)GlcNAc(b1-2)Man(a1-6)]GalNAc
In short: as §1

[26] = biological target: Neu5Ac(a2-3)Gal(b1-4)GlcNAc(b1-3)Gal(b1-4)GlcNAc(b1-3)GalNAc
In short: as §1

[27] = biological target: Neu5Ac(a2-3)Gal(b1-4)GlcNAc(b1-3)Gal(b1-4)GlcNAc(b1-3)[Neu5Ac(a2-3)Gal(b1-4)GlcNAc(b1-3)Gal(b1-4)GlcNAc(b1-6)]GalNAc
In short: as §1

[28] = biological target: Neu5Ac(a2-3)Gal(b1-4)GlcNAc(b1-3)Gal(b1-4)GlcNAc(b1-6)[Gal(b1-3)]GalNAc
In short: as §1

[29] = biological target: Neu5Ac(a2-3)Gal(b1-4)GlcNAc(b1-3)Gal(b1-4)[Fuc(a1-3)]GlcNAc
In short: as §1

[30] = biological target: Neu5Ac(a2-3)Gal(b1-4)GlcNAc(b1-3)GalNAc
In short: as §1

B1: CC1G-10077 (Coprinopsis cinerea), A8NDT7 (protein)
chain: MALNEGVYWIRNSRFTNKVLDLDAANVAKGTSILDFNEHGTFNENHNQLWIVERFQSRDTYLIRSVHSNLVLDLSQGLSANGTPILCWTQHGGTNQQWRIEWVKDDNKTPLYRIVSVATGTAISHNEDDSSAYTVAWSVDDGPKQLWSFDPFVTPLLYRLRVKSTSRVLDLAAASADNGTLALAWEQHTAITKRNQLWWLPYRSGAEEYTIQCLETSTVADLSGGNSGNGTPIYGWQSHGGRNQQWKFEPTSDSGDYYHIKNVEGGSVMDAYMNDSQKRVGGWSNNGGDNQKWLLDPLPSPGPGWVLIQNGGTGKFLCSTPSGDIGTADGPETVYDYSVQWRFIQREYTGVYHVVNRATGAYLRQIGTSMPSIGLAEENDDELKDWWMLETYDNSEIGLASIISRWTGNVLDHYGGVSVQALDNNTENSYRSWAIIPARDWLTSFSLVNGQGGLCLAAQYAREETRLSTTANVNDFHAQWVFRKPSGSSGYTIQNKYNNHYVGGTSARWELVVCCNKYFGIRNTSTQKYLAIEDGQVTFQDQDMTDRKQCWELCSGRATDTSGNDYDLIYMDDDLLEVMIPWVGDKQGDLKHYIEKRATKKPPKDKGGWQLPAAGLIKKPKFNDIRQLLQELIEQWEWDVVNEEREQIQTLVSIDEAEARRLLGRRPHPDIVAAYQRSRSSTLFRIDRQGYFNIAGDRYVNIQGQYGDDSYFHIALPVGVRFGREQIRRFLRDSLDRSTSVTITPTTCKPPSGGPDYNRDPDSDGDNSWIKWTIAVVGTSAIKHSEL
For B1, the “glycan array binding signal (z-score)” value [1] was 0.95, the “glycan array binding signal (z-score)” value [2] was -0.458 and the “glycan array binding signal (z-score)” value [3] was -0.473. The “glycan array binding signal (z-score)” value [4] was -0.472, the “glycan array binding signal (z-score)” value [5] was -0.475 and the “glycan array binding signal (z-score)” value [6] was -2.79. The “glycan array binding signal (z-score)” value [7] was -0.486, the “glycan array binding signal (z-score)” value [8] was -0.444 and the “glycan array binding signal (z-score)” value [9] was -0.37. The “glycan array binding signal (z-score)” value [10] was -0.638, the “glycan array binding signal (z-score)” value [11] was -0.45 and the “glycan array binding signal (z-score)” value [12] was -0.331. For the same binder, the “glycan array binding signal (z-score)” value [13] was -0.383, the “glycan array binding signal (z-score)” value [14] was -0.503 and the “glycan array binding signal (z-score)” value [15] was -0.46. The “glycan array binding signal (z-score)” value [16] was -0.436, the “glycan array binding signal (z-score)” value [17] was -0.422 and the “glycan array binding signal (z-score)” value [18] was -0.489. For the same binder, the “glycan array binding signal (z-score)” value [19] was -0.496, the “glycan array binding signal (z-score)” value [20] was -0.52 and the “glycan array binding signal (z-score)” value [21] was -0.453. For the same binder, the “glycan array binding signal (z-score)” value [22] was -0.43, the “glycan array binding signal (z-score)” value [23] was -2.14 and the “glycan array binding signal (z-score)” value [24] was -0.463. The “glycan array binding signal (z-score)” value [25] was -0.417, the “glycan array binding signal (z-score)” value [26] was -0.473 and the “glycan array binding signal (z-score)” value [27] was -0.151. The “glycan array binding signal (z-score)” value [28] was -0.408, the “glycan array binding signal (z-score)” value [29] was -0.473 and the “glycan array binding signal (z-score)” value [30] was -0.461.
